Laboratory results reported in the supplement of paper PMC4967469.

Legend:
Test in all cases: Viability of human cancer cell lines after 72 h of drug (GDSC screen)
[1] = compound: C=CCNC1=C2C[C@@H](C)C[C@H](OC)[C@H](O)[C@@H](C)/C=C(\C)[C@H](OC(N)=O)[C@@H](OC)/C=C\C=C(/C)C(=O)NC(=CC1=O)C2=O [17-AAG]; conditions: top dose 1 µM
Procedure: (§1)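 Human cancer cell lines in 384-well plates, medium with 10% serum, drug for 72 h over a 256-fold dose range (nine 2-fold or five 4-fold steps up to the top dose). Adherent lines were fixed and stained with the nucleic acid dye Syto60, suspension lines read with resazurin; signal relative to control wells, capped at 0 and 100%. One two-parameter sigmoid per drug and line, fitted in a mixed model over all curves with the slope shared within a line.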

[2] = compound: CS(=O)(=O)c1ccc(C(=O)Nc2ccc(Cl)c(-c3ccccn3)c2)c(Cl)c1 [Vismodegib]; conditions: top dose 10 µM; top dose inferred
Procedure: as §1

[3] = compound: Cc1cnc(Nc2ccc(OCCN3CCCC3)cc2)nc1Nc1cccc(S(=O)(=O)NC(C)(C)C)c1 [TG101348]; conditions: top dose 10.24 µM
Procedure: as §1

[4] = compound: COc1cccc2cc(-c3nc([C@H]4CC[C@H](C(=O)O)CC4)n4ncnc(N)c34)[nH]c12 [OSI-027]; conditions: top dose 20 µM
Procedure: as §1

[5] = compound: CN(C)Cc1cccc(N=C(c2ccccc2)c2c(O)[nH]c3cc(C(=O)N(C)C)ccc23)c1 [BIX02189]; conditions: top dose 20 µM; top dose inferred
Procedure: as §1

[6] = compound: O=C(c1ccc(C(=O)N2CCC(N3CCCC3)CC2)c(Nc2ccccc2)c1)N1CCC(N2CCCC2)CC1 [UNC1215]; conditions: top dose 1 µM; top dose inferred
Procedure: as §1

[7] = compound: COC(=O)CNC(=O)C(=O)OC [Dimethyloxalylglycine]; conditions: top dose 4000 µM; top dose inferred
Procedure: as §1

[8] = compound: COc1cccc2c1C(=O)c1c(O)c3c(c(O)c1C2=O)C[C@@](O)(C(=O)CO)C[C@@H]3O[C@H]1C[C@H](N)[C@H](O)[C@H](C)O1 [Doxorubicin]; conditions: top dose 1.024 µM
Procedure: as §1

[9] = compound: Cc1cnc(Nc2ccc(F)cc2Cl)nc1-c1c[nH]c(C(=O)N[C@H](CO)c2cccc(Cl)c2)c1 [VX-11e]; conditions: top dose 5.12 µM; top dose inferred
Procedure: as §1

[10] = compound: CCc1cc(-c2n[nH]c(C)c2-c2ccc3c(c2)OCCO3)c(O)cc1O [CCT018159]; conditions: top dose 10 µM; top dose inferred
Procedure: as §1

BV-173 (chronic myeloid leukaemia, suspension)
AUC [1]: 0.796
IC50 [1]: 0.405 µM
AUC [2]: 0.871
IC50 [2]: 7.56 µM
AUC [3]: 0.448
IC50 [3]: 0.471 µM
AUC [4]: 0.173
IC50 [4]: 0.151 µM
AUC [5]: 0.918
IC50 [5]: > 20 µM
AUC [6]: 0.968
IC50 [6]: > 1 µM
AUC [7]: 0.473
IC50 [7]: 213 µM
AUC [8]: 0.864
IC50 [8]: 0.725 µM
AUC [9]: 0.964
IC50 [9]: > 5.12 µM
AUC [10]: 0.833
IC50 [10]: 5.4 µM

C3A (liver, adherent)
AUC [1]: 0.797
IC50 [1]: 0.495 µM
AUC [2]: 0.988
IC50 [2]: > 10 µM
AUC [3]: 0.988
IC50 [3]: > 10.2 µM
AUC [4]: 0.986
IC50 [4]: > 20 µM
AUC [5]: 0.988
IC50 [5]: > 20 µM
AUC [6]: 0.987
IC50 [6]: > 1 µM
AUC [7]: 0.405
IC50 [7]: 136 µM
AUC [8]: 0.786
IC50 [8]: 0.461 µM
AUC [9]: 0.988
IC50 [9]: > 5.12 µM
AUC [10]: 0.867
IC50 [10]: 9.65 µM

CA46 (Burkitt lymphoma, suspension)
AUC [1]: 0.974
IC50 [1]: > 1 µM
AUC [2]: 0.983
IC50 [2]: > 10 µM
AUC [3]: 0.695
IC50 [3]: 2.36 µM
AUC [4]: 0.16
IC50 [4]: 0.103 µM
AUC [5]: 0.833
IC50 [5]: 14.3 µM
AUC [6]: 0.97
IC50 [6]: > 1 µM
AUC [7]: 0.361
IC50 [7]: 99.9 µM
AUC [8]: 0.636
IC50 [8]: 0.157 µM
AUC [9]: 0.926
IC50 [9]: > 5.12 µM
AUC [10]: 0.964
IC50 [10]: > 10 µM

CAL-39 (cervix, adherent)
AUC [1]: 0.558
IC50 [1]: 0.0904 µM
AUC [2]: 0.984
IC50 [2]: > 10 µM
AUC [3]: 0.909
IC50 [3]: > 10.2 µM
AUC [4]: 0.918
IC50 [4]: > 20 µM
AUC [5]: 0.937
IC50 [5]: > 20 µM
AUC [6]: 0.984
IC50 [6]: > 1 µM
AUC [7]: 0.186
IC50 [7]: 27.3 µM
AUC [8]: 0.58
IC50 [8]: 0.107 µM
AUC [9]: 0.926
IC50 [9]: > 5.12 µM
AUC [10]: 0.881
IC50 [10]: > 10 µM

CAL-72 (osteosarcoma, adherent)
AUC [1]: 0.902
IC50 [1]: > 1 µM
AUC [2]: 0.965
IC50 [2]: > 10 µM
AUC [3]: 0.984
IC50 [3]: > 10.2 µM
AUC [4]: 0.984
IC50 [4]: > 20 µM
AUC [5]: 0.984
IC50 [5]: > 20 µM
AUC [6]: 0.982
IC50 [6]: > 1 µM
AUC [7]: 0.543
IC50 [7]: 334 µM
AUC [8]: 0.721
IC50 [8]: 0.307 µM
AUC [9]: 0.984
IC50 [9]: > 5.12 µM
AUC [10]: 0.884
IC50 [10]: > 10 µM

CCF-STTG1 (glioma, adherent)
AUC [1]: 0.511
IC50 [1]: 0.0668 µM
AUC [2]: 0.988
IC50 [2]: > 10 µM
AUC [3]: 0.652
IC50 [3]: 1.7 µM
AUC [4]: 0.568
IC50 [4]: 1.92 µM
AUC [5]: 0.941
IC50 [5]: > 20 µM
AUC [6]: 0.969
IC50 [6]: > 1 µM
AUC [7]: 0.873
IC50 [7]: 3900 µM
AUC [8]: 0.372
IC50 [8]: 0.0283 µM
AUC [9]: 0.986
IC50 [9]: > 5.12 µM
AUC [10]: 0.969
IC50 [10]: > 10 µM

CESS (acute myeloid leukaemia, suspension)
AUC [1]: 0.936
IC50 [1]: > 1 µM
AUC [2]: 0.988
IC50 [2]: > 10 µM
AUC [3]: 0.525
IC50 [3]: 0.742 µM
AUC [4]: 0.095
IC50 [4]: < 0.0781 µM
AUC [5]: 0.837
IC50 [5]: 10.8 µM
AUC [6]: 0.98
IC50 [6]: > 1 µM
AUC [7]: 0.268
IC50 [7]: 61.5 µM
AUC [8]: 0.418
IC50 [8]: 0.0396 µM
AUC [9]: 0.853
IC50 [9]: 3.14 µM
AUC [10]: 0.951
IC50 [10]: > 10 µM

CHL-1 (melanoma, adherent)
AUC [1]: 0.33
IC50 [1]: 0.0216 µM
AUC [2]: 0.949
IC50 [2]: > 10 µM
AUC [3]: 0.81
IC50 [3]: 5.01 µM
AUC [4]: 0.164
IC50 [4]: 0.128 µM
AUC [5]: 0.899
IC50 [5]: > 20 µM
AUC [6]: 0.986
IC50 [6]: > 1 µM
AUC [7]: 0.672
IC50 [7]: 731 µM
AUC [8]: 0.386
IC50 [8]: 0.0318 µM
AUC [9]: 0.946
IC50 [9]: > 5.12 µM
AUC [10]: 0.89
IC50 [10]: > 10 µM

CHP-126 (neuroblastoma, suspension)
AUC [1]: 0.925
IC50 [1]: > 1 µM
AUC [2]: 0.984
IC50 [2]: > 10 µM
AUC [3]: 0.707
IC50 [3]: 2.49 µM
AUC [4]: 0.887
IC50 [4]: > 20 µM
AUC [5]: 0.969
IC50 [5]: > 20 µM
AUC [6]: 0.978
IC50 [6]: > 1 µM
AUC [7]: 0.726
IC50 [7]: 1120 µM
AUC [8]: 0.51
IC50 [8]: 0.068 µM
AUC [9]: 0.987
IC50 [9]: > 5.12 µM
AUC [10]: 0.872
IC50 [10]: > 10 µM

CMK (acute myeloid leukaemia, suspension)
AUC [1]: 0.966
IC50 [1]: > 1 µM
AUC [2]: 0.984
IC50 [2]: > 10 µM
AUC [3]: 0.398
IC50 [3]: 0.353 µM
AUC [4]: 0.206
IC50 [4]: 0.204 µM
AUC [5]: 0.801
IC50 [5]: 8.08 µM
AUC [6]: 0.988
IC50 [6]: > 1 µM
AUC [7]: 0.392
IC50 [7]: 133 µM
AUC [8]: 0.535
IC50 [8]: 0.0786 µM
AUC [9]: 0.848
IC50 [9]: 2.96 µM
AUC [10]: 0.937
IC50 [10]: > 10 µM

KARPAS-231 (B-cell leukaemia, suspension)
AUC [1]: 0.94
IC50 [1]: > 1 µM
AUC [2]: 0.907
IC50 [2]: 8.06 µM
AUC [3]: 0.512
IC50 [3]: 0.684 µM
AUC [4]: 0.012
IC50 [4]: < 0.0781 µM
AUC [6]: 0.991
IC50 [6]: > 1 µM
AUC [7]: 0.275
IC50 [7]: 68.8 µM
AUC [8]: 0.468
IC50 [8]: 0.0534 µM
AUC [10]: 0.889
IC50 [10]: 6.84 µM

LN-229 (glioma, adherent)
AUC [1]: 0.694
IC50 [1]: 0.219 µM
AUC [2]: 0.986
IC50 [2]: > 10 µM
AUC [3]: 0.955
IC50 [3]: > 10.2 µM
AUC [5]: 0.988
IC50 [5]: > 20 µM
AUC [6]: 0.986
IC50 [6]: > 1 µM
AUC [7]: 0.422
IC50 [7]: 154 µM
AUC [8]: 0.69
AUC [9]: 0.98
IC50 [9]: > 5.12 µM
AUC [10]: 0.938
IC50 [10]: > 10 µM

Ramos-2G6-4C10 (Burkitt lymphoma, suspension)
AUC [1]: 0.99
IC50 [1]: > 1 µM
AUC [2]: 0.857
IC50 [2]: 6.33 µM
AUC [3]: 0.852
IC50 [3]: 6.23 µM
AUC [5]: 0.88
IC50 [5]: 15.5 µM
AUC [6]: 0.98
IC50 [6]: > 1 µM
AUC [7]: 0.412
IC50 [7]: 149 µM
AUC [8]: 0.756
IC50 [8]: 0.305 µM
AUC [9]: 0.97
IC50 [9]: > 5.12 µM
AUC [10]: 0.933
IC50 [10]: > 10 µM

By IC50 is meant the dose at which the fit gives 50% viability; a fit beyond the top or the lowest dose is shown as a bound at that dose. For AUC the same curve is integrated over the 256-fold range of doses and scaled to a fraction; values near 1 show little effect. For some assays here: The top dose, if marked as inferred, was calculated from the reported fits.
